Laboratory results from publication PMC12040169 (PLOS Biology, 2025).
The list shows a part of the results.

System: T1, C. trachomatis L2/434/Bu expressing GFP (CTL2-GFP)
T1 construct: L2/434/Bu GFP intracellular growth in HeLa cells
Set-up: species or system HeLa; C. trachomatis total inclusion area by high-content imaging, normalised to DMSO
Details: total inclusion area; 28.5 h, 10 µM; inhibitor
In short: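 Post-fluorescence-read fixation, DNA staining with Hoechst and high-content imaging; GFP inclusion area and number per well, and nuclei counts, used as proxies for bacterial growth and host viability.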

| SMILES | % of control remaining |
| --- | --- |
| CC(C)(C)c1ccc(CN2CCN(C(=O)c3ccc(-c4ccc(S(C)(=O)=O)cc4)cn3)CC2)cc1 [CBK160487] | 75.3061 |
| O=C(NC1CC1)[C@H]1CN2CCC1C[C@@H]2Cn1cc(C2(O)CCCC2)nn1 (stereo partly shown) [CBK289092] | 104.721 |
| Cc1cccc(CN2CCC(NC(=O)Cn3cc(Br)ccc3=O)CC2)c1 [CBK305669] | 95.4893 |
| CCOc1ncccc1C(=O)Nc1cnc2c(cnn2C(C)C)c1 [CBK306210] | 52.6866 |
| O=C(O)c1ccc(OCCN2C3=NCCN3c3ccccc32)cc1 [CBK286629] | 84.072 |
| O=S(=O)(Nc1nccnc1Cl)c1ccccc1Cl [CBK149698] | 88.833 |
| COc1ccc(OC)c(C(=O)N2CCNC(=O)C2Cc2ccc(-c3cccs3)cc2)c1 (stereo not shown) [CBK285803] | 87.3472 |
| N#C/C(=C\c1ccc(-c2ccc3c(c2)C(=O)NC3=O)o1)c1nc2ccccc2[nH]1 [CBK262965] | 121.287 |
| Cc1ccccc1-n1ncc2c1ncn1nc(-c3ccccc3)nc21 [CBK287797] | 100.687 |
| O=C(CN1C(=O)CCC1=O)Nc1nnc(-c2ccc3c(c2)CCCC3)o1 [CBK287427] | 114.852 |
| O=S(=O)(Nc1cc(Cl)nc(Cl)c1)c1ccc(-c2cc(C(F)(F)F)on2)s1 [CBK062215] | 106.186 |
| Cc1nc(-c2ccc(NCC(O)c3ccco3)nc2)[nH]c(=O)c1C (stereo not shown) [CBK305254] | 12.6206 |
| CN(C)c1ccc(/C=N/NC2=NC(=O)CS2)cc1 [CBK019273] | 54.0041 |
| Cc1cc(C(=O)N2CCC(n3c(=O)[nH]c4ccccc43)CC2)no1 [CBK149714] | 124.41 |
| CCOc1ccc(N2C(=O)CC(N3CCN(c4ccccn4)CC3)C2=O)cc1 (stereo not shown) [CBK263285] | 84.4574 |
| COc1nccnc1OC1CCN(CCCO)CC1 [CBK084254] | 101.652 |
| N[C@@H]1CCCN(C(=O)c2ccccc2)[C@H]1c1ccccc1F [CBK281405] | 62.1218 |
| CC(C)c1cc(C(=O)NCC2CCCN(C(C)C)C2)n(C)n1 (stereo not shown) [CBK282566] | 122.67 |
| CS(=O)(=O)N1CCC(C(=O)NCCN2CCOCC2)CC1 [CBK270151] | 106.767 |
| O=S(=O)(Nc1cccc2nsnc12)c1cccs1 [CBK017018] | 47.4023 |

| SMILES | % of control remaining |
| --- | --- |
| COCCN1CC2=C(C1=O)C(c1ccc(F)cc1)NC(=O)N2 (stereo not shown) [CBK249447] | 96.1572 |
| CC(=O)Nc1cccc(-n2nnnc2SCc2cnn(C)c2)c1 [CBK305471] | 59.6291 |
| COc1ccc(C(=O)N2CCC3(CCN(C(=O)CCSC)C3)C2)cc1OC (stereo not shown) [CBK131786] | 101.872 |
| O=C1CSC(Nc2nc(-c3ccccc3)cs2)=N1 [CBK026880] | 55.8834 |
| COCC(C)NC(=O)Cn1c(-c2cccs2)cc2cccnc21 (stereo not shown) [CBK282557] | 109.575 |
| Cc1csc2c(C3CCCN(C(=O)c4cc[nH]n4)C3)nc(C)n12 (stereo not shown) [CBK285238] | 112.588 |
| CCOc1ccc(-n2nnnc2SCC(=O)c2ccc(Cl)c(Cl)c2)cc1 [CBK141942] | 65.8773 |
| COc1cc(/C=C2/SC(=N)NC2=O)ccc1OCc1ccccc1[N+](=O)[O-] [CBK262181] | 98.0915 |
| COc1ccccc1N1CCN(C(=O)c2ccc3c(c2)no[n+]3[O-])CC1 [CBK091510] | 73.4363 |
| Cn1cc(CC(=O)N2CCCc3ccccc32)c2ccccc21 [CBK200349] | 108.473 |
| CCN(Cc1ccncc1)C(=O)NCc1ccc(F)cc1 [CBK155146] | 87.9341 |
| Cc1nn(CC(=O)N2CCC(C)CC2)c(=O)c2cc3occc3n12 [CBK283654] | 93.379 |
| COc1ccccc1-c1[nH]nc(O)c1Cc1c(Cl)cccc1Cl [CBK107933] | 88.6569 |
| O=C1CNC(=O)C2(C/C=C/C[C@H]3COCC[C@H]3N1)CCN(Cc1cccc3[nH]ccc13)CC2 [CBK292073] | 83.6802 |
| COc1cc(CN2CCCC3(CCN(C(=O)Cc4c[nH]c5ccccc45)C3)C2)cc(OC)c1OC (stereo not shown) [CBK132027] | 90.7535 |
| COc1cccc(N2CCN(CC(CC(=O)Nc3ccccc3)C(=O)O)CC2)c1 (stereo not shown) [CBK286813] | 115.265 |
| CN1CCN(S(=O)(=O)c2ccc(C(C)(C)C)cc2)CC1 [CBK051237] | 82.3749 |
| CCCCOc1ccc(S(=O)(=O)Nc2ccc(-c3cn4ccccc4n3)cc2)cc1 [CBK264374] | 109.341 |
| N=c1n(CCN2CCCCC2)c2ccccc2n1CC(O)COc1ccccc1 (stereo not shown) [CBK262451C] | 103.353 |
| COc1ccccc1N1CCN(CC(CC(=O)Nc2ccc3c(c2)OCO3)C(=O)O)CC1 (stereo not shown) [CBK286822] | 101.506 |
